Consider 47 compounds from PubChem BioAssay AID1963576 (National Center for Advancing Translational Sciences (NCATS), 2024).

The whole screen tested about 46,000 compounds, of which about 60 (0.1%) were called active. Not shown: some 3% with an inconclusive outcome. The call rests on the fitted dose curve; in most records, active means well fitted inhibition curve with a large enough effect; inconclusive means small, poorly fitted or top-dose-only effect; inactive means no such curve, though single readings can be large or run the other way. Some of the results follow.

A short description of the assay: Primary qHTS assay for Inhibitors of ovarian cancer metastasis using an organotypic tumor microenvironment (TME) model. Further: nearly all actives have a fitted effect of over 65% in size.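 On activity change, negative = inhibition: plate controls were DMSO wells for no effect and tomatine positive control wells for full effect.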 Particulars: SKOV3ip1-GFP adhesion/invasion on 3D omental model, fluorescence; series mostly up to 45.8 µM; activity change, negative = inhibition: at the top concentration. In outline:
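qHTS, 4-pt dose (0.36-46 umol/L); SKOV3ip1-GFP, 1,200 cells/well, no FBS; primary omental fibroblast/mesothelial co-culture 48 h pre-grown; 2 h RT + 16 h 37 C; PBS wash, 4% PFA; GFP count 488/509 nm.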
On the technique in general: In qHTS, concentration-response curves come from the screen itself.
For `CC1CCCN(c2nc3c(S(=O)(=O)c4ccc(C(C)C)cc4)nnn3c3ccsc23)C1` (configuration not stated), the call was inactive.

Take `COc1ccc(C2=C(C)C(=O)N(Cc3ccc(C(=O)Nc4cccc(F)c4)cc3)S2(=O)=O)cc1`: the “activity change, negative = inhibition” value is inactive: -3.82%.

For the compound `Cc1ccc(F)cc1NC(=O)Cn1c(=O)nc(-c2ccccc2F)c2cc(Cl)ccc21`, the “activity change, negative = inhibition” value was inactive: -9.46%.

Take `Cc1ccc(-c2nc3c(C)cccn3c2Nc2ccccc2C)s1`: the “activity change, negative = inhibition” value was inactive: 2.53%.

Consider `CCC1CCCCN1CCCNC(=O)c1c(O)nc2ccccn2c1=O` (configuration not stated), for which the compound was called inactive.

In the case of `COc1ccc(-c2csc(-c3nc(-c4ccc(Br)s4)cs3)n2)cc1F`, the “activity change, negative = inhibition” value was inactive: -11.6%.

Turning to `COc1cccc(CN2C(=O)c3ccccc3Sc3ccc(C(=O)NCCc4ccc(C)cc4)cc32)c1`, the call was inactive.

Regarding `COc1cc2c(-c3ccccc3O)nc3c(c(C)nn3-c3ccccc3)c2cc1OC`, the “activity change, negative = inhibition” value was inactive: -1.93%.

Regarding `N#Cc1ccccc1NC(=O)CSc1ncn[nH]1`, the “activity change, negative = inhibition” value is inactive: 8.78%.

`O=C(Nc1ccc(-c2nc3cc(NC(=O)c4ccccc4F)ccc3o2)cc1)c1ccccc1F`: the “activity change, negative = inhibition” value was inactive: 3.86%.

Regarding `COc1ccccc1C(=O)N1CCCCC1CCN1CCOCC1` (configuration not stated), the “activity change, negative = inhibition” value is inactive: 5.19%.

On to `Cc1cccc(NC(=O)Cn2cc(C(=O)C3CCCCC3)c3ccccc32)c1C`, for which the “activity change, negative = inhibition” value was inactive: -0.401%.

On to `CC(=O)c1ccc(NC(=O)c2ccc3c(c2)nnn3C2CCCC2)cc1`, for which the “activity change, negative = inhibition” value was inactive: 2.76%.

As for `CCOc1ccc(C(=O)CSc2nc3cc(C(=O)NC4CCCC4)ccc3c(=O)n2CC2CCCO2)cc1` (configuration not stated), the “activity change, negative = inhibition” value was inactive: 15.6%.

With `Cc1cccc(C(=O)Nc2ccc(C(=O)OCc3cc(=O)n4c5c(sc4n3)CCCC5)cc2)c1`, the “activity change, negative = inhibition” value is inactive: -10.6%.

For the compound `CN1C(=O)Cc2cc(S(=O)(=O)N3CCN(c4cccc(C(F)(F)F)c4)CC3)ccc21`, the “activity change, negative = inhibition” value was inactive: -6.93%.

Consider `Cc1ccc(C)c(NC(=O)c2nc(S(C)(=O)=O)ncc2N(Cc2ccc(C(C)(C)C)cc2)Cc2ccco2)c1`, for which the “activity change, negative = inhibition” value was inactive: 0.643%.

For `Cn1c(=O)c2c(nc(Oc3ccc(F)cc3)n2Cc2ccc(F)cc2)n(C)c1=O`, the “activity change, negative = inhibition” value is inactive: -4.22%.

Turning to `COc1ccccc1NC(=O)c1sc2nc(C)c(C(=O)Nc3ccc(C)cc3C)c(-c3ccc(Br)cc3)c2c1N`, the “activity change, negative = inhibition” value is inactive: 6.83%.

Take `Cc1ccccc1CNC(=O)Cn1ccc2cc(S(=O)(=O)N3CCCCC3)ccc21`: the “activity change, negative = inhibition” value is inactive: 7.11%.

As to `CC(C)=CCCC(C)=CCCC(C)=CCSc1ccccc1C(=O)O`, the “activity change, negative = inhibition” value is inactive: -15.4%.

For the compound `CCOc1ccc(C(=O)c2cn(CC(=O)Nc3ccc4c(c3)OCCO4)c3ccc(OC)cc3c2=O)cc1`, the “activity change, negative = inhibition” value is inactive: 0.615%.

Regarding `CCCc1nn2c(=O)cc(COC(=O)c3cccs3)nc2s1`, the “activity change, negative = inhibition” value is inactive: 7.96%.

`O=C(NCc1ccccc1)c1cc2sccc2n1Cc1ccc(F)cc1`: the “activity change, negative = inhibition” value is inactive: -3.38%.

`Cc1ccc(CNC(=O)C(=O)NCC(c2cccnc2)N2CCN(c3ccc(F)cc3)CC2)cc1` (configuration not stated): the “activity change, negative = inhibition” value is inactive: 7.1%.

Consider `COc1ccc(NC(=O)CSc2nc3ccccc3nc2Cc2ccc(C)cc2)cc1Cl`, for which the result was inactive.

As for `CCOC(=O)c1c(S(=O)(=O)NCC(=O)Nc2cc(C)ccc2OC)c(C)n(C)c1C`, the “activity change, negative = inhibition” value is inactive: -5.49%.

In the case of `Cc1ccccc1C(=O)OCc1cc(=O)n2nc(C3CC3)sc2n1`, the “activity change, negative = inhibition” value is inactive: 0.523%.

With `Cc1ccc(C(=O)OCc2cc(=O)n3nc(-c4cccs4)sc3n2)cc1`, the “activity change, negative = inhibition” value is inactive: -3.94%.

For `CCOC(=O)N1CCC(NC(=O)c2ccc3c(c2)N(Cc2cc(C)ccc2C)C(=O)c2ccccc2S3(=O)=O)CC1`, the “activity change, negative = inhibition” value is inactive: -13.6%.

For `CCOc1ccc(CCn2c3c(c(=O)[nH]c2=O)C(NC(=O)c2ccccc2)(C(F)(F)F)C(=O)N3)cc1OCC` (configuration not stated), the “activity change, negative = inhibition” value was inactive: 4.24%.

For the compound `CCN(CC)c1ccc2cc(-c3nc(-c4ccc(Cl)cc4Cl)cs3)c(=O)oc2c1`, the “activity change, negative = inhibition” value was inactive: -4.07%.

`COc1ccccc1NC(=O)Cn1c(=O)n(Cc2cccs2)c(=O)c2cccnc21`: the “activity change, negative = inhibition” value was inactive: 2.19%.

In the case of `O=C(Cn1cc(SCc2ccccc2F)c2ccccc21)N1CCCCCC1`, the “activity change, negative = inhibition” value is inactive: -8.59%.

As to `COc1cccc(-c2cnc(NCc3ccccc3Cl)n2C)c1`, the “activity change, negative = inhibition” value was inactive: -20.5%.

For the compound `CCOc1ccccc1NC(=O)c1cc(S(=O)(=O)NC2CCCC2)ccc1F`, the “activity change, negative = inhibition” value is inactive: 3.66%.

For `Cc1ccc(C(=O)Nc2ccc3oc(-c4cccnc4)nc3c2)c(Cl)c1`, the “activity change, negative = inhibition” value is inactive: -16.8%.

Turning to `CC(C)(C)c1ccc(S(=O)(=O)Nc2ccc(O)c(Sc3nc4ccccc4s3)c2)cc1`, the compound was classed as inactive.

As for `CC(=O)N1CCCc2cc(S(=O)(=O)N3CCCC(C(=O)Nc4ccc(C)c(C)c4)C3)ccc21` (configuration not stated), the “activity change, negative = inhibition” value is inactive: 5.42%.

In the case of `O=c1ncn2nc(Sc3ccc(F)cc3F)ccc2c1-c1c(Cl)cccc1Cl`, the “activity change, negative = inhibition” value is inactive: -6.69%.

Regarding `Cc1coc2cc3oc(=O)c(CC(=O)NCc4ccccc4)c(C)c3cc12`, the “activity change, negative = inhibition” value is inactive: -3.46%.

As to `CCOc1ccc2nc(N3CCC(C(=O)Nc4c(C)cccc4C)CC3)sc2c1`, the “activity change, negative = inhibition” value was inactive: -8.27%.

`Cc1ccc(S(=O)(=O)Nc2cc3c(cc2Cl)n(C)c(=O)c(=O)n3C)cc1`: the “activity change, negative = inhibition” value is inactive: 14.8%.

Consider `Cc1ccc(C)c(N2CCN(C(=O)c3cc4c(=O)n(Cc5cccs5)ccc4nc3C)CC2)c1`, for which the “activity change, negative = inhibition” value is inactive: 0.532%.

As for `CCCCOc1ccc(CNC(=O)c2ccc(NC(=O)N3CCSc4ncccc43)cc2)cc1`, the “activity change, negative = inhibition” value was inactive: -6.72%.

For `Cc1ccc(-n2ncc(C(=O)N3CCC(c4ccccc4)C3)c2C2CCN(C(=O)OC(C)(C)C)CC2)cc1` (configuration not stated), the “activity change, negative = inhibition” value was inactive: 3.7%.

As for `Cc1ccc(C)c(CN2C(=O)c3ccccc3S(=O)c3ccc(C(=O)N(C)Cc4ccccc4)cc32)c1` (configuration not stated), the call was inactive.
